{"source": "paper PMC4336329", "about": "(PLoS ONE, 2015)", "note": "Out of some 310,000 compounds screened, about 2,200 (0.71%) showed an effect of 50% or more. The effect is printed as a negative number. Some of the results follow."}
{"molecular_target": "human ether-à-go-go-related gene (hERG) potassium channel (human, UniProt Q12809)", "sequence (Q12809 whole entry, looked up)": "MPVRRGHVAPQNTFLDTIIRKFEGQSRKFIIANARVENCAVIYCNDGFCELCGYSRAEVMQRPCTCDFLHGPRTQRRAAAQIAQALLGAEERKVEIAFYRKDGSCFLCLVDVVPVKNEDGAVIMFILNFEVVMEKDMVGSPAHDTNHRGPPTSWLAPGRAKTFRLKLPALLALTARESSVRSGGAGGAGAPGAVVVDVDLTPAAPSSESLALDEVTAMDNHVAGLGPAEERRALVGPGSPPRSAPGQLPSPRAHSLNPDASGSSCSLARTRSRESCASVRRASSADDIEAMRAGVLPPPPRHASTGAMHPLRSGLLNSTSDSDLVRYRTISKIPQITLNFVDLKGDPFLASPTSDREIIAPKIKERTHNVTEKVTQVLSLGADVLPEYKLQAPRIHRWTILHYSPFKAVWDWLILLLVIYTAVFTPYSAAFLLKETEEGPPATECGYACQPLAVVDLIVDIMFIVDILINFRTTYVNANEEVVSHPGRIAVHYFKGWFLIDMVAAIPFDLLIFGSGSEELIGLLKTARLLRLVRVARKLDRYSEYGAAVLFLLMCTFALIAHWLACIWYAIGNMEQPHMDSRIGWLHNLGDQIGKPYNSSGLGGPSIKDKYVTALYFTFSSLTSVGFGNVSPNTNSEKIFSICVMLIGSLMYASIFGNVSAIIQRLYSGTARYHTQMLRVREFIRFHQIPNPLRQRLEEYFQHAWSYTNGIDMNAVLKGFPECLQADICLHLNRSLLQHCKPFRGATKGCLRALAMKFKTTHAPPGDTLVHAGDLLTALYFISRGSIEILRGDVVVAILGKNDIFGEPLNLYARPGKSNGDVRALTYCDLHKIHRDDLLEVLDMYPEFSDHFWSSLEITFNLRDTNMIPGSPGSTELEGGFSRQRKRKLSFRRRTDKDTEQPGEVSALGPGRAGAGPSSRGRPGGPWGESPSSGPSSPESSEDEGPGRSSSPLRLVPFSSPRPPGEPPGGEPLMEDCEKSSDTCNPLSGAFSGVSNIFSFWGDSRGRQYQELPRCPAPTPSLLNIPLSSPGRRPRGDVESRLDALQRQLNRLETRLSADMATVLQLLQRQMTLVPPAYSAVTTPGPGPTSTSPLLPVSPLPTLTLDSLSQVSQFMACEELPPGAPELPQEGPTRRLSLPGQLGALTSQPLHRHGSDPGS", "experiment": "primary screen, population patch clamp on CHO cells stably expressing hERG", "units": {"hERG current change (%, negative = inhibition) at 1uM": "%"}}
{"compound": "COc1cccc(/C=C/C(=O)OCC(=O)NCC2CCCO2)c1", "note": "(stereo not drawn)", "hERG current change (%, negative = inhibition) at 1uM": 11.6}
{"compound": "Cc1ccc(NC(=Nc2ccc(Br)cc2)N2CCOCC2)cc1C", "hERG current change (%, negative = inhibition) at 1uM": -1.01}
{"compound": "Cc1ccc(NC(=O)c2ccc(NCCCN3CCOCC3)c([N+](=O)[O-])c2)cc1Cl", "hERG current change (%, negative = inhibition) at 1uM": 8.15}
{"compound": "Clc1cccc(C2NCCc3[nH]cnc32)c1", "note": "(stereo not drawn)", "hERG current change (%, negative = inhibition) at 1uM": 0.0369}
{"compound": "O=c1cc(O)c2c(=O)n(C3CCCCC3)c3ccccc3c2o1", "hERG current change (%, negative = inhibition) at 1uM": 10.4}
{"compound": "COC(=O)c1c(NC(=O)c2ccoc2C)sc2c1CCC2", "hERG current change (%, negative = inhibition) at 1uM": 7.4}
{"compound": "CC(=O)c1ccc(N(C(=O)CNC(=O)c2ccco2)C(C(=O)NC2CCCC2)c2ccc(C)o2)cc1", "note": "(stereo not drawn)", "hERG current change (%, negative = inhibition) at 1uM": -1.35}
{"compound": "Cn1c(=O)[nH]c(=O)c2c1nc(CN1CCN(Cc3ccccc3)CC1)n2CC(N)=O", "hERG current change (%, negative = inhibition) at 1uM": 6.48}
{"compound": "COc1ccc(O)c(/C=N/N2CCOCC2)c1", "hERG current change (%, negative = inhibition) at 1uM": 18.1}
{"compound": "CN(CCOc1ccc(C=C2C(=O)NC(=O)NC2=O)cc1)c1ccccn1", "hERG current change (%, negative = inhibition) at 1uM": 12.5}
{"compound": "CC(C)/C(=N/Nc1ccccc1[N+](=O)[O-])c1ccccc1", "hERG current change (%, negative = inhibition) at 1uM": 22.6}
{"compound": "CCOC(=O)C1=NOC(CN(c2ccccc2)S(=O)(=O)c2ccc(Cl)cc2)C1", "note": "(stereo not drawn)", "hERG current change (%, negative = inhibition) at 1uM": 1.84}
{"compound": "CCc1ccc(NC(=O)c2n[nH]c(=O)c3ccccc23)cc1", "hERG current change (%, negative = inhibition) at 1uM": 11.4}
{"compound": "CCN1C(=O)/C(=C/C=C2/CCCN2C)OC1=S", "hERG current change (%, negative = inhibition) at 1uM": 5.94}
{"compound": "Nc1cc2ccncc2c2ccccc12", "hERG current change (%, negative = inhibition) at 1uM": 4.55}
{"compound": "CCc1cc(C(=O)N(CC)CC(=O)Nc2ccc(OC)cc2)sc1C", "hERG current change (%, negative = inhibition) at 1uM": 5.23}
{"compound": "Cc1cc(S(=O)(=O)Nc2c(C(=O)O)[nH]c3ccccc23)ccc1F", "hERG current change (%, negative = inhibition) at 1uM": 6.88}
{"compound": "COC(=O)c1ccccc1NC(=O)c1cccc(NC(=O)C(C)C)c1", "hERG current change (%, negative = inhibition) at 1uM": 12.1}
{"compound": "Cn1c(CSCc2ccc(Cl)cc2)nnc1SCC(=O)Nc1nc2ccccc2s1", "hERG current change (%, negative = inhibition) at 1uM": 12.5}
{"compound": "CCCN1CCN(CCCNC(=S)Nc2ccc(F)cc2)CC1", "hERG current change (%, negative = inhibition) at 1uM": 6.17}
{"compound": "CCN(CC)S(=O)(=O)c1ccc(C)c(NC(=O)CSc2nc3ccccc3[nH]2)c1", "hERG current change (%, negative = inhibition) at 1uM": 5.26}
{"compound": "CCN(CC)c1ccc(C2C(C(=O)OCCOC(C)C)=C(C)NC3=C2C(=O)CCC3)cc1", "note": "(stereo not drawn)", "hERG current change (%, negative = inhibition) at 1uM": 4.21}
{"compound": "CCCC(=O)Nc1cc(C(=O)O)ccc1S(=O)(=O)c1ccc(C)cc1", "hERG current change (%, negative = inhibition) at 1uM": 9.45}
{"compound": "CC(Sc1nnc(C2CC2)n1C1CC1)C(=O)NC1(C#N)CCCCC1", "note": "(stereo not drawn)", "hERG current change (%, negative = inhibition) at 1uM": 1.84}
{"compound": "COc1ccc(CCNC(=O)c2ccc(Cl)c(S(=O)(=O)N3CCCC3)c2)cc1", "hERG current change (%, negative = inhibition) at 1uM": -4.63}
{"compound": "O=C(NC(=S)Nc1ccc(Cl)cn1)c1cccs1", "hERG current change (%, negative = inhibition) at 1uM": 12.7}
{"compound": "CCOc1c2ccc(C(=O)NCc3ccc(OC(F)(F)F)cc3)cc2nn1CC", "hERG current change (%, negative = inhibition) at 1uM": 3.49}
{"compound": "O=C1N/C(=C/c2cccs2)C(=O)N1Cc1ccccc1F", "hERG current change (%, negative = inhibition) at 1uM": 4.52}
{"compound": "O=C(Nc1ccc2oc(-c3ccccc3F)nc2c1)c1ccc([N+](=O)[O-])o1", "hERG current change (%, negative = inhibition) at 1uM": 12.6}
{"compound": "COc1ccc(CCNC(=O)c2ccc(OCc3c(C)noc3C)cc2)cc1OC", "hERG current change (%, negative = inhibition) at 1uM": 5.91}
{"compound": "O=C(Cc1ccccc1)Nc1cccc(C(=O)N/N=C/c2ccco2)c1", "hERG current change (%, negative = inhibition) at 1uM": 5.46}
{"compound": "COc1cc(C(C)=O)ccc1OCC(O)CN1CCN(S(=O)(=O)c2ccccc2)CC1", "note": "(stereo not drawn)", "hERG current change (%, negative = inhibition) at 1uM": 1.54}
{"compound": "COc1ccc(C(CNC(=O)C2CCN(S(=O)(=O)c3ccc(F)cc3)CC2)N(C)C)cc1", "note": "(stereo not drawn)", "hERG current change (%, negative = inhibition) at 1uM": 7.61}
{"compound": "CCOC(=O)C1C(C)=C(Nc2ccc(OC)cc2)C(=O)N1c1ccc(OC)cc1", "note": "(stereo not drawn)", "hERG current change (%, negative = inhibition) at 1uM": 11.5}
{"compound": "CC(=O)N1CCN=C1SCc1cccc(F)c1", "hERG current change (%, negative = inhibition) at 1uM": 16.4}
{"compound": "CCOC(=O)c1cccc(NC(=O)C2CCN(c3ncnc4c3nc3n4CCCCC3)CC2)c1", "hERG current change (%, negative = inhibition) at 1uM": 19.7}
{"compound": "COP(=O)(OC)C(Nc1cc(Cl)cc(Cl)c1)c1cccc(O)c1", "note": "(stereo not drawn)", "hERG current change (%, negative = inhibition) at 1uM": 10.6}
{"compound": "O=C(CSc1nnc(CN2CCOCC2)n1-c1ccccc1)Nc1ccc(Cl)cc1", "hERG current change (%, negative = inhibition) at 1uM": -4.14}
{"compound": "C=CCn1c(O)c(CN2CCCCC2)c(C)c(C#N)c1=O", "hERG current change (%, negative = inhibition) at 1uM": 9.51}
{"compound": "CC(=O)c1ccc(N2Cc3ccccc3C2=NC(=O)c2cccs2)cc1", "hERG current change (%, negative = inhibition) at 1uM": 0.895}
{"compound": "CCOc1ccc(-n2c(SCC(=O)Nc3ccccc3C)n[nH]c2=O)cc1", "hERG current change (%, negative = inhibition) at 1uM": 13}
{"compound": "CCOC(=O)c1c(O)c2cc(Cl)ccc2n(CC)c1=O", "hERG current change (%, negative = inhibition) at 1uM": 10.8}
{"compound": "CC(C)(C)C1CCc2c(sc(NC(=O)CSc3ncn[nH]3)c2C#N)C1", "note": "(stereo not drawn)", "hERG current change (%, negative = inhibition) at 1uM": 11.7}
{"compound": "CCc1ccc(CN(C)C(=O)CCc2nc3ccccc3n(-c3ccc(OC)cc3)c2=O)cc1", "hERG current change (%, negative = inhibition) at 1uM": 5.88}
{"compound": "CC(NC(=O)C1CCCCC1)C(=O)NC1=NCCS1", "note": "(stereo not drawn)", "hERG current change (%, negative = inhibition) at 1uM": -0.523}
{"compound": "CCCC(=O)NC(c1ccco1)c1cc([N+](=O)[O-])c2cccnc2c1O", "note": "(stereo not drawn)", "hERG current change (%, negative = inhibition) at 1uM": 9.23}
{"compound": "Cc1cc(OCC(=O)NCC(O)c2ccccc2)c2c(C)c(C)c(=O)oc2c1", "note": "(stereo not drawn)", "hERG current change (%, negative = inhibition) at 1uM": 16.6}
{"compound": "COc1ccc(/C=C2\\Oc3cc(OC(=O)N4CCOCC4)ccc3C2=O)cc1", "hERG current change (%, negative = inhibition) at 1uM": 3.7}
{"compound": "C=CCn1c(SCC(=O)OCc2ccccc2)nc2c1c(=O)n(C)c(=O)n2C", "hERG current change (%, negative = inhibition) at 1uM": -1.44}
{"compound": "COc1ccccc1CNS(=O)(=O)c1c(C(=O)N2CCCCC2)c(C)n(C)c1C", "hERG current change (%, negative = inhibition) at 1uM": 10.8}
{"compound": "Cc1ccc(C)c(S(=O)(=O)NCCCc2ccccc2)c1", "hERG current change (%, negative = inhibition) at 1uM": 10.9}
{"compound": "COc1cccc(-n2nc(C(C)=O)c(C#N)c2-c2ccco2)c1", "hERG current change (%, negative = inhibition) at 1uM": 10.9}
{"compound": "C=CCc1c(O)nc(SCC(=O)c2ccccc2)[nH]c1=O", "hERG current change (%, negative = inhibition) at 1uM": 5.27}
{"compound": "O=C(N/N=C/c1ccccc1F)NC1CCCCC1", "hERG current change (%, negative = inhibition) at 1uM": 0.617}
{"compound": "c1ccc(-c2nc(-c3ccncc3)no2)cc1", "hERG current change (%, negative = inhibition) at 1uM": 12.2}
{"compound": "O=C(Nc1ccc(S(=O)(=O)N2CCOCC2)cc1)c1ccc(=O)[nH]c1", "hERG current change (%, negative = inhibition) at 1uM": 15.5}
{"compound": "CCN(CC)c1ccc(NC(=O)CCc2nnc3ccc(N4CCCC4)nn23)c(C)c1", "hERG current change (%, negative = inhibition) at 1uM": 7.38}
